The source gives no read counts; variants with many changes may rest on few reads.
B1: LINE1-full (parent)
chain: UACGUAGGUGGUUUUCCCCUGAUAGUGCUAAGGGGGCCUGGAAGUUUGGACUGGGCAGAGCUCAACACAGCGUGGCAAAGUGGCUGUGGCUAGACUGCCUCUCUGGAUUCCUCGUCACUCAGCAGGGCAUCUCUGAGAGAAAUGCC

Variants of: B1
Test: self-cleavage, relative activity (ratio to wild type); higher = more cleavage; in vitro, sequencing; the parent is a self-cleaving ribozyme

| Variant | self-cleavage |
| --- | --- |
| U9C C71U U134C | 0.62 |
| U9C C17A A94G | 0.42 |
| A31U C51A A107C | 1.23 |
| C38A U73C A129U | 2.12 |
| U9C G27A U45G A67G | 0.24 |
| U47C G53A C63U C76U U109A | 0.59 |
| U73A A79G U115A | 0.97 |
| A30G A64U A94G | 0.25 |
| U52A A59G A124G U134A | 0 |
| A64G A67G U100C | 0 |
| C17U C37U U102C | 1.63 |
| U46C G74A U96C A140G | 0.12 |
| U39A A77U U134C | 1.13 |
| A78U A107U A136U | 0.99 |
| A50G U108C C123U | 0.85 |
| G35A A121C A140G | 1.37 |
| A77G U85A A140U U143C | 0.03 |
| U119A A124G U130A | 1.61 |
| A6G A57G A121C U132C | 0 |
| U29C U91A U115C | 0.63 |
| A22G A43G U47G U62A A142G | 0.19 |
| U39A U81C A136U | 1.22 |
| U20C A64C A79G C113U A141G | 0.36 |
| U26A A77U U81A A107G | 1.51 |

| Variant | self-cleavage |
| --- | --- |
| A42U A59G A129U U132C | 0.19 |
| G32A A59G A77G | 0.12 |
| A22U A30U A57U C61A U143C | 0.1 |
| U15C U39C A69G | 1.31 |
| U14A G44A U112A | 0.75 |
| A6G U45A A67U U112C | 0.36 |
| A79G U96C A124G G125U | 0 |
| U9A U20C G54A A69U U96A | 0.08 |
| U20A U52C A67G | 0.57 |
| A6U U119A U132C | 1.18 |
| G49A A117G U143C | 1.31 |
| U13C C28U U85A U134C | 0.03 |
| U12C C18A A69G A79U G105U | 0.76 |
| U9C C17U U96C A141G | 0.31 |
| A31U U52G U73A | 0.98 |
| C17U A43U A94U U119A A142G | 0.31 |
| U87C U112A A140G | 0.17 |
| A42U A124U A140G | 0.92 |
| C3U U39C A142G | 0.84 |
| U46C A77G U91C | 0.45 |
| U52C C90U U115A U132C | 0.03 |
| U5C U46C A129G A142G | 1.12 |
| G114A U130A A140G | 1.28 |
| U9A U47C U104C | 0.82 |

| Variant | self-cleavage |
| --- | --- |
| A22G A94G G122U U134C | 0.35 |
| A57G A78G C120U | 1.38 |
| U29C A67G U96G A140G | 0 |
| A42U A59G A77U A129U | 0.57 |
| U26A U39C U85C | 0.11 |
| U52C U73C A121G C145U | 1.02 |
| U12C U96C U109A | 0.34 |
| A43G U62C A117G U143A | 0.97 |
| U15A A43U U45A | 0.22 |
| A24U G75A C90A | 0.05 |
| A22C A79G U85A U134C | 0.11 |
| A43G A78U U143C | 2.21 |
| U13C U29C A59U G74A U108A | 0.46 |
| A77U U85A U102C | 0.19 |
| U13A U52C A65U U119C | 0.19 |
| U85A U104C U108C | 0.44 |
| U39C A42G A121U A141G | 1.18 |
| U115A G122A A141G | 1.24 |
| A57G A92G U119C | 0.67 |
| U45A U96C U130A | 0.09 |
| U14A A24G G75A A92U C133U | 0.45 |
| A31U U62C U102C | 0 |
| U12G A77U U96A | 0 |
| A22G U46A C145U C146A | 1.28 |

| Variant | self-cleavage |
| --- | --- |
| U115A G122A U132C | 1.93 |
| U39C G72A A142G | 1.23 |
| C38U A79G A92G U130C | 0 |
| U15C U47C G125A | 0.78 |
| A2G U102C U134G | 0.66 |
| C19A A69G U87A U100C C146U | 0 |
| G44A A67U A79G C84U U85A U108C | 0.02 |
| U13C U62A A124G | 0.24 |
| U9C A31G G105C G106U C111U | 1.5 |
| U14A A43G U73A U91C | 0 |
| U46C A77G U109A G126A | 2.15 |
| U9A G54A U91C A136G | 0.1 |
| U26A A50G U104A G139U | 1.15 |
| U14C A67G C123U A124G | 0.65 |
| U26G A67U G114C | 0.2 |
| U62A A65G A69U U96C U119C A138U | 0 |
| U85C U104C A129U | 0.43 |
| U15C A64G U73A A79G A140C | 0.64 |
| U20A G27A G33A U109C | 0.66 |
| A22G A64G A107U U134C | 0.29 |
| U1C U14G A136G A138G | 1.74 |
| U29C A59U A140U | 0.5 |
| A30U A78G A94G | 0.3 |
| U108C U115A G126U | 1.98 |

| Variant | self-cleavage |
| --- | --- |
| A43G U62C C71A | 0.04 |
| A64G U108C A124G | 0 |
| U1C G40A U45A A57U U62C | 0 |
| U5C U20C C56U | 0.3 |
| A64C U108C U119C | 0.57 |
| A24G A117G A138G | 1.02 |
| U5A G34A U45G A67G | 0.22 |
| U5C A121G A129G | 0.61 |
| U15C C131U A140G | 1.52 |
| U13C U14G A59G U81A | 0.19 |
| U23A U102C A129G A136C | 1.53 |
| U102C G105A C133A A136G A138G | 1.36 |
| A57G U108C U143A | 1.28 |
| A24C G32A A43G U47A U96C A124U | 0.13 |
| U1A A57G U85A | 0.14 |
| G40A U112C U134C | 1.34 |
| A65G A94G U104C C128U A142U | 0.08 |
| C51U A77G G135U A142G | 1.39 |
| G44A G49A C71U | 0.65 |
| U26G U52A U112C G125A | 1.07 |
| A22U A30C U52C A57G U87C A138U | 0 |
| A22G U62C U100C A124G | 0 |
| A50U A64G U81C | 0.22 |
| U5C A31U U45A | 1.14 |

| Variant | self-cleavage |
| --- | --- |
| U14A U47G U87C U104C A138G | 0 |
| U96C U102C A107G | 0 |
| U14C A59G U85A G97U U108C | 0.11 |
| A24G G32A A69U | 0.09 |
| U47C A67C A77G A142U | 0 |
| A2G U15C U26C | 0.71 |
| U15C A57U U130C | 0.34 |
| U13A U45C G75A | 0.77 |
| U13C U85A U96A U119C | 0.25 |
| U23C A24G A138G | 1.43 |
| A67G U87A A92U | 0.08 |
| U45A G48A U52A | 1.21 |
| A59G A67G U73A | 0.04 |
| U20A C38A U39A | 0.75 |
| U13C A78G U81G A121G | 0.37 |
| U26C A42G G72A U108C A124G | 2.92 |
| U26C G32A U39C | 0.9 |
| U20C A79G A140G G144A | 0.85 |
| U52C C84U U132A | 0 |
| G35C A78G U130C | 1.44 |
| U14C U20C U96C C103A U115C | 0 |
| U13C A22G U23C | 0.92 |
| A30U A64U G74A A94U U109C | 0.11 |
| A92C U96C A107G | 0 |

| Variant | self-cleavage |
| --- | --- |
| A57G U62A A77U U112C | 0.09 |
| G75U C76A U81C A124G | 1.1 |
| U14C U20A U91A U102A | 0.61 |
| U47A U62C A140U | 0.06 |
| U26A A50G C113U | 0.83 |
| U20C A24U A57G A129U C133U U134C | 1.11 |
| U62C C120A A136U | 0.06 |
| G34U A124G A138G | 1.48 |
| G21U A24G U100A U112C | 0.97 |
| U81C U112A U115A A141G | 1.28 |
| U13A G27U U46C U85A | 0.06 |
| U5C A31U A43G | 1.1 |
| U45C A92G A124G G126U | 0.19 |
| U47A U52A U81C G114A | 1.01 |
| U12C U26C G74C | 1.37 |
| U26C A50U G53U A59G A65G A107G | 0 |
| A59G A94C A142G | 0 |
| U5G U9A U100C | 0.4 |
| U14C G33A A42G A78G U115C | 1.59 |
| U15C C71U U108G U134C | 0.84 |
| G4A U9G U23C A92U | 0.35 |
| G8A U14C G27A A42C C63A A65U U100G U119A | 0.19 |
| A30C U85A U109C | 0.1 |

From the RNAGym collection of RNA variant scans (doi:10.7554/elife.90254)
